B1: TPR 5TU (parent)
chain: GGAUCUUCUCGAUCUAACAAAAAAGACAAAUCUGCCACAAAGCUUGAGAGCAUCUUCGGAUGCAGAGGCGGCAGCCUUCGGUGGCGCGAUAGCGCCAACGUUCUCAACUAUGACACGCAAAACGCGUGCUCCGUUGAAUGGAGUUUAUCAUG

Variants at the floor of the assay are shown more often than the library holds them.

In the series the parent is B1. The series can be described thus: polymerase ribozyme fitness, log enrichment relative to wild type (log ratio); higher = more active; in vitro selection for triplet polymerase activity. In a few lines:
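Mutant libraries of both subunits of a heterodimeric triplet polymerase ribozyme were PCR-built, transcribed, and selected once in triplicate, with frozen incubation at −7 °C and capture of gel-excised extended constructs on streptavidin beads before RT-PCR. Illumina sequencing of input and output libraries was filtered to genotypes with ≥10 input reads and ≥1 read per output. Fitness is the logarithm of genotype enrichment over wild-type enrichment, using inverse-variance-weighted replicate averages. The logarithm is base 2.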
For GGAUCUUCUCGAUCUAACCAAGAAGACAAAUCUGCCACAAAGCUUGAGAGCAUCUUCGGAUGCAGAGGCGGCAGCGUUCGGUGGCGCGAUAGUGCCAACGUUCUCAACUAUGACAUGCAAAACGCGUGCUCCGUUGAAUGGAGUUUAACAUG, the “polymerase ribozyme fitness (log ratio)” value is ≤ -4.2.

Regarding GGAUCUUCUCGAUCUAACCAAAAAGACAAAUCUGCCACUAAGCUUGAGAGCAUCUUCGGAUGCAGAGGCGGCAGCCUUCGGUGCCGCGAUAGAGCCAACGUUCUCAACUAUGACACGCAAAACGCGUGCUCCGUUGAAUGGAGUUUAACAUG, the “polymerase ribozyme fitness (log ratio)” value was ≤ -4.2.

Consider GGAUCUUCUCGAUCUAACCAAAAAGACAAAUCUGCCACAAAGCUUGUGAGCAUCUUCGGAUGCAGAAUCGGCAGCCUUCGGUGGCGCGAUAGCGCCAACGUUCUCAACUAUGACACGCAAAACACGUGCUCCGUUGAAUGGAGUUUAUCGUG, for which the “polymerase ribozyme fitness (log ratio)” value is ≤ -4.2.

Regarding GGAUCUUCUCGAUCUAAUAAAAAAGACAAAUCUGCCACAAAGCUUGAGAGCAUCUUCGGAUGCAGAGGCGGCAGCCUUCGGUGGCGCAAUAGCGCCAACGUUCUCAACUAUGACACGCAAAACGCGUGCUCCCUUGAAUGUAGUUUAUCAUG, the “polymerase ribozyme fitness (log ratio)” value was ≤ -4.2.

For the variant GGAUCUUCUCGAUCUAACCAAAACGACAUAUCUGCCACAAAGCUUGAGAGCAUCUUCGGAUGCAGAGGCGGCAGCCUUCGGUGGCGCGAUAGCGCCAGCGUUCUCAACUAUGACACGCAAAACGCGUGCUCCGUUGAAUGGAGUUUAUCAUG, the “polymerase ribozyme fitness (log ratio)” value was ≤ -4.2.

Consider GGAUCUUCUCGAUCUAACCAAAAAGACAUAUCUGCCACUAAGCUUGAGAGCAUCUUCGGUUGCAGAGGCGGCAGCUUUCGGUGGCGCGAUAGCGUCAACGUUCUCAACUAUGACACGCAAAACGCGUGCUCCGUUGAAUGGAGAUUAUCAUG, for which the “polymerase ribozyme fitness (log ratio)” value was ≤ -4.2.

Turning to GGAUCUUCUCGAUCUAAUAAAAAAGACAAAUCUGCCACAAAGCUUGAGAGCAUCUACGGAUGCAGAGGCGGCAGCCUUCGGUGGAGCGAUAGCGCCAACGUUCUCAACUAUGACACGCAAAACACGUGCUCCGUGAAAUGGAGUUUAUCAUG, the “polymerase ribozyme fitness (log ratio)” value is ≤ -4.2.

Regarding GGAUCUUCUCGAUCUAACCAAAAAGACAAAUCUGCCACAACGCUUGAGAGUAUCUUCCGAUGCAGAGGCGGCAGCCUUCGGUGGCGCGAUUGCGCCAACGUUCUCAACUCUGACACGCAAAACUCGUGCUCCGUUGAAUUGAGUUUAUCAUG, the “polymerase ribozyme fitness (log ratio)” value is ≤ -4.2.

On to GGAUCUUCUCGAUCUAACCAAAAAGUCAAAUCUGCCACAAAGCUUGAGAGCAUCUUCGGAUGCAGAGGCGGCAGCCUUCGGUGGCGCGAUAGCGCGAACGUUCUCAACUAAGACACGCAUAACGCGUGCUCCGUUGAAUGGAGUUUAGCAUG, for which the “polymerase ribozyme fitness (log ratio)” value was ≤ -4.2.

As to GGAUCUUCUCGAUCUAAUAAAAAAGACAAAGCUGCCACAAGGCUUGAGAGCAUCUACGGAUGUAGAGGCGGCAGCCUUCGGUGGCGCGAUAGCGUGAACGUUCUCAACUAUGACACGCAAAACGCGUGCUCCGUUGAAUGGAGCUUAUCAUG, the “polymerase ribozyme fitness (log ratio)” value was -2.53.

Take GGAUCUUCUCGAUCUAACCAAAAAGACAAAUCUGCCACAAAGCUUGAGGGCAUCGUGGGAUGCAGAGGCGGCAGCCUUCGGUGGCGCGAUAGUGCCAACGUUCUCAACUAUGACACGCAAAACGCGGGCUCCGUUAAAUGGAGUUUAUCAUG: the “polymerase ribozyme fitness (log ratio)” value is ≤ -4.2.

Take GGAUCUUCUCGAUCUAACCAAAAAGUCAAAUCUGCCACAAAGCUUGAGAGCAUCUUCGGAUGUAGAGGCGGCAGCCUUCGGUGGCGCGAUAGCGCCAACGUUGUCAACUAUGACACGCAAAACGCGUGCUCCGUUGAAUGGAGUUUAUCAUG: the “polymerase ribozyme fitness (log ratio)” value was ≤ -4.2.

As to GGAUCUUCUCGAUCUAAUAAAAAAGACAAAUCUGCCACAAAGCUUGAGAGCAUCAUCGGAUGCAGAGGCGGCAGCCUUCGCUGGCGCGAUAGUGCCAACGUUCUUAACUAUGACACGGAAAACGCGUGCUCCGUUGAAUGGAGUUUAUCAUG, the “polymerase ribozyme fitness (log ratio)” value was -1.85.

As to GGAUCUUCUCGAUCUAACCAAUAAGACAAUUCUGCCACAAAGUUUGAGAGCAUCUUCGGAUGCAGAGGCGGCAGCCUUCGGUGGCGCGAUAGCGCCAACGUUCUCAACUAUGACACGCAAAACGCGUGCUCCGUUUAAUGGAGUUUACCAUG, the “polymerase ribozyme fitness (log ratio)” value is ≤ -4.2.

For the variant GGAUCUUCUCGAUCUAAUAAAAAAGACAAAUCUGCCACAAAGCUUGAGAGCAUCUUCGGAUGCAGAGGCGGCAGCCUUCGGUGGCGCAAUAACGCCAACGUUCUCAACUAUGACACGCAAAACGCGUGCUCGGUUGAAUGGAGUUUAACAUG, the “polymerase ribozyme fitness (log ratio)” value was ≤ -4.2.

In the case of GGAUCUUCUCGAUCUAAUAAAAAAGACAAAUCAGCCACUAAGCUUGAGAGCCUCUUCGGAUGCAGAGGCGGUAGCCUUCGGUGGCGCGAUAGCAUCAACGUUCUCAACUAUGACACGCAAAACGCGUGCUCUGUUGAAUGGAGUUUAUCAUG, the “polymerase ribozyme fitness (log ratio)” value is ≤ -4.2.

Take GGAUCUUCUCGAUCUAACCAAAAAGACAAUUCUGCCACAAAGCUUUAGAGCAUCUUCGGCUGCAGAGGAGGCAGCCUUCGGUGGUGAGAUAGCGCUAACGUUCUUAACUAUGACACGCAAAACGCGUGCUCCGUUGAAUGGAUUUCAUCAUG: the “polymerase ribozyme fitness (log ratio)” value was ≤ -4.2.

Take GGAUCUUCUCGAUCUAAUAAAAAAGACAAAACUGCCACAAAGCUUGAGAGCAUCUUCGGAUGCAGAGGCCGCAGCCUUCCGUGGCGCGAUAGCGGAAACGUUCUCAACUAUGACACGCAAAGCGCGUGCUCCGUUGAAUGGAGUUUAUCAUG: the “polymerase ribozyme fitness (log ratio)” value is ≤ -4.2.

With GGAUCUUCUCGAUCUAACCAAAAAGACCAAUCUGCCACAAAGCUUGAGAGCAUCUUCGGAUGCAGAGGCGGCGGCCUUCGGUGGCGUGAUAGCGCCAACGUUCUCAACUAUGACACGCAAAACGCGUGCUCCGUUGAAUGGAGUUUAUCAUG, the “polymerase ribozyme fitness (log ratio)” value was ≤ -4.2.

For GGAUCUUCUCGAUCUAAUAAAAAAGACAAAUCUGCCACAAAGCUUGAGAGCAUCUUCGGAUGCAGAGGCGGCAGCCUUCGGUGGCGCGAGAGCGCCAACGUUCUCAACUAUGACACGCAAAACGCGUGCUCCGUUGAAUGGAGUUUAUCAUG, the “polymerase ribozyme fitness (log ratio)” value is ≤ -4.2.

For the variant GGAUCUUCUCGAUCUAAUAAAAAAGACAAAUCUGCCACAAAGCUUGAGAGCAUCUUCGGAUGCAGAGGCGGCAGCCUUCGGUGGCGCGAUAGCACCAACGUUCUCAACUAUGACACGCAAAACGCGUGCUCCGUUGAAUGGAGUUUAUCAUG, the “polymerase ribozyme fitness (log ratio)” value was -1.37.

Regarding GGAUCUUCUCGAUCUAACCAGAAAGACAAAUCUGCCACAAAGCUUGAGAGCAUCUUAUGAUGCAGAGGCGGUAGCCUUCGGUGGUGCGAUAGCGCCAACGUUUUCAACUAUGACACGCAAAACGCGUGCUCCGCUGAAUGGAGUUUAUCAUG, the “polymerase ribozyme fitness (log ratio)” value was -0.327.

In the case of GGAUCUUCUCGAUCUAACCAAAAAGACCAAUCUGCCACAAAGCUUGAGAGCAUCUUCGGAUGCAGAGGCGGCAGCCUUCGGUGGCGCGAUAGCGCCAACGUUCUCAACUAUGACACGCAAAACGCGUGCUCCGUUGAAUGGAGUUUAUCAUG, the “polymerase ribozyme fitness (log ratio)” value was ≤ -4.2.

Consider GGAUCUUCUCGAUCUAAUAAAAAAGACAAAUCUGCCACAAAGCUAGAGAGCAUCUUUGGAUGCAGAGGCGGCAGCCUUCGGUGGCGCGAUAAAGCCAACGUUCUCAACUAUGACACGCAAAACGCGUGCUCCGUUGAAUGGAGUUUAUCAUG, for which the “polymerase ribozyme fitness (log ratio)” value is ≤ -4.2.

Regarding GGAUCUUCUCGAUCUAACCAAAAAGACAAAUCUGCCACAAAGCUUGGGAGCAUCUUCGGAUGCAGAGGCGGCAGCCUUUGGUGGAGCGAGAGCGCCAACGUUCUCAACUAUGACACGCAACACGCGUGCUCCGUUGAAUGGAGUUUAUCAUG, the “polymerase ribozyme fitness (log ratio)” value is ≤ -4.2.

Regarding GGAUCUUCUCGAUCUAACCAAAAAGACAUAUCUGCCACAAAGCUUGGGAGCAUCUUCGGAUGCAGAGGCGGCAGCCUUCGGUGGCGCGCUAGCGCGAACGUUCUCAACUAUGACACGCAAAACGCGUGCUCCGUUGAAUGAAGUUUAUCAUU, the “polymerase ribozyme fitness (log ratio)” value was ≤ -4.2.

Turning to GGAUCUUCUCGAUCUAACCACAAAGACAAAUCUGUCACAAAGCUUGAGAGCAUCUUCGUAUGCAGAGGCGGCAGUCUUCGGUGGCGCGAUAGCGCCAACGUUCUCAACUAUGACACGCAAAACGCGUGCUCCGUUGAAUGGAGUUUAUCAUG, the “polymerase ribozyme fitness (log ratio)” value was -1.16.

Turning to GGAUCUUCUCGAUCUAACCAAAUAGACAAAUCUGCCACAAAGCUUGAGAGCAACUUCGGAUGCAGAGGCGGCAGCCUUCGGUGGCGCGAUAGCGCCAACGUUCUCAACUAUGACACGCAAAACGCGUGCUCCGUUGAAUGGAGUUUAUCAUG, the “polymerase ribozyme fitness (log ratio)” value is ≤ -4.2.

Turning to GGAUCUUCUCGAUCUAAUAAAAAAGACAAAUCUGCCACAAAGCUUGAGAGCAUCUUCGGAGGCAGAGGCGGCAGCCUUCGGUGGCGCGAUCGGGCUAAUGUUCUCAACUAUGACACGCAAAACGCGUGCUCCGUUGAAUGGAGUUUUUCAUG, the “polymerase ribozyme fitness (log ratio)” value is ≤ -4.2.

For the variant GGAUCUUCUCGAUCUAACCUAAAAGACAAAUCUGCCACAAAGCUUGAGAGCAUCUUCGGAUGCAGAGACGGCAGCCUUGGGUGGCGCGAUAGCGCCAACGUUCUCAACUAUGACACGCAAAACGCGUGCUCCGUUGAAUGGAGUUUAUCAUG, the “polymerase ribozyme fitness (log ratio)” value is ≤ -4.2.

Consider GGAUCUUCUCGAUCUAACCAAUAAGACAAAUCUGCCACAAAUCUUGAGAGCAUCUUCGGAUGCAGAGGCGGCAGGAUUCGGUGGCGCGAUAGCACCAACGUUCUCAACUUUGACACGCAAAACGCGUGCUCCUUUGAAUGGAUUUGAUCAUG, for which the “polymerase ribozyme fitness (log ratio)” value is ≤ -4.2.

With GGAUCUUCUCGAUCUAAUAAAAAAGACAAAUCUGCCACAAAGCUUGAGAGCAUCAUCGGAUGCAGAGGCGGCAGCCUUCGGUGGCGCGAUAGCGCCAACGUUCUCAACUAUGACACGCAAAACGCGUGCUCCGUUGAAUGGAGUUUAUCAUG, the “polymerase ribozyme fitness (log ratio)” value is -1.49.

As to GGAUCUUCUCGAUCUAACCAAAAGGACAAAUCUGCCACAAAUCUUGAGAGCUUCUUCGGAUGCAGAGGCGGCAGCCUUCGGUGGCGCGAUAUCGCCAACGUUCUCAACUAUGACACGCAAAACGCGUGCUCCGUUGAAUGGAGUUUAUCAUG, the “polymerase ribozyme fitness (log ratio)” value was ≤ -4.2.

Regarding GGAUCUUCUCGAUCUAACCAAAAAGACAAAUCUGCCACUAAGCUUGAGAGCAGCUUCGGAUGCAGAGGCGGCAGCCUUCGGUGGCGCGUUAGCGCCAACGUUCGCAAAUAUGACACGCAAAACGCGUGCUCCGUUAACUGGAGUAUAUCAUG, the “polymerase ribozyme fitness (log ratio)” value is ≤ -4.2.

Take GGAUCUUCUCGAUCUAACCAAAAAGACAUAUCUGCCACAAAGCUUGAGAGCAACUUCGGAUGCAGAGGCGGCAGCCUUCGGUGGCGCGAUAGCGCCAACGGUCUCAACUAUGACACGCAAAACGCGUGCUCCGUUGAAUGGACUUUAUCAUG: the “polymerase ribozyme fitness (log ratio)” value was ≤ -4.2.

As for GGAUCUUCUCGAUCUAAUAAAAAAGACAAAUCUGCCACAAAGCUUGAGAGCAUCUUCGGAUGCAGAGGCGGCAGCCUUCGGUGGCGCCAUAGCGCCAACGUUCUCAACUAUGACACGCAAAACGCGUGCUCCGUUGAAUGGAGUUUAUCAUG, the “polymerase ribozyme fitness (log ratio)” value is ≤ -4.2.

Consider GGAUCUUCUCGAUCUAAUAAAAAAGACAAAUCUGCCACAAAGCUAGAGAGCAUCUUCGGAUUCAGAGGCGGCAGCCUGCGGUGGUGCGAUAGCGCCAACGUUCUCAACUAUGACACGCAAAACGCGUUCUCCGUUGAAUGGAGUUUAUCAUG, for which the “polymerase ribozyme fitness (log ratio)” value is ≤ -4.2.

Regarding GGAUCUUCUCGAUCUAACCAAGAAGACAAAUCUGCCACAAAGCUUGAGAGCAUCUUCGGAUGCAGAGGCGGCAGCCUUCGCUCACGCGAUAACGCCAACGUUCUCAACUAUGACACGCAAAACGCGUGCUCCGUUGAAUGGAGUUUAUCAUG, the “polymerase ribozyme fitness (log ratio)” value is ≤ -4.2.

For the origin of these results see the RNAGym collection of RNA variant scans (doi:10.1073/pnas.2313332121).
